Experimental data reported in PubChem BioAssay AID493208 (National Center for Advancing Translational Sciences (NCATS), 2011).
The whole screen tested about 44,000 compounds, of which about 340 (0.77%) were called active. About 5% were inconclusive and are not listed. The call rests on the fitted dose curve; in most records, active means well fitted inhibition curve with a large enough effect; inconclusive means small, poorly fitted or top-dose-only effect; inactive means flat fitted curve, though single readings scatter. The list shows a part of the results.

Assay: Acumen qHTS Assay for Inhibitors of the mTORC1 Signaling Pathway in MEF (Tsc2-/-, p53-/-) Cells: Sytravon; further: nearly all actives have a fitted effect of over 50% in size;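 on activity change, negative = inhibition: plate controls were DMSO for no effect and rapamycin for full effect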
Conditions: phospho-rpS6 immunofluorescence/PI, 24 h; series mostly up to 38.3 µM; activity change, negative = inhibition: at the top concentration
Method in brief: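 Plate MEFs (Tsc2-/-, p53-/-, empty vector) in DMEM/10% FBS; after 24 h add compound, incubate 24 h at 37 degree Celsius; fix in PFA/TX-100, block, stain phospho-rpS6 and 10 uM PI; scan at 488 nm; report % positive cells.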
Potency means the concentration at half of the fitted maximal effect.

Structure (SMILES) | activity change, negative = inhibition | Potency
COc1ccc(-n2nc3c(N4CCC(C(=O)NCc5ccccc5C)CC4)nnc(C)c3c2C)cc1 | inactive: -2.49% | 
CCOC(=O)N1CCC(NC(=O)c2c(C)nn(-c3cccc(C)c3)c2-n2cccc2)CC1 | inactive: -5.39% | 
CCOC(=O)c1ccc(NC(=O)CSc2nc3c(c(=O)[nH]2)CN(Cc2ccccc2)CC3)cc1 | inactive: 0.0661% | 
Cc1ccc2c(=O)c(C(=O)c3cccc(Cl)c3)cn(CC(=O)NC3CCCCC3)c2n1 | inactive: 4.57% | 
CC(C)(C)C(=O)NCCc1nc2ccccc2n1CCCCOc1ccccc1 | inactive: -10.4% | 
Cc1ccc(N(CC(=O)N2CCN(c3ccc(F)cc3)CC2)S(=O)(=O)c2c(C)noc2C)cc1 | inactive: -2.76% | 
Cc1ccc(CSc2cn(CC(=O)N3CCCCCC3)c3ccccc23)cc1 | inactive: -18.7% | 
COc1cccc(CNC(=O)Cn2ncc3c(=O)oc4ccccc4c32)c1 | inactive: -8.23% | 
O=S(=O)(NCc1ccc(F)cc1)c1ccc(N2CCCCS2(=O)=O)cc1 | inactive: -29.7% | 
CCOc1ccccc1CNCCCSc1nnnn1C | inactive: 0.65% | 
CCCN(Cc1cc2cccc(C)c2[nH]c1=O)C(=O)c1cccc(Cl)c1 | inactive: 3.5% | 
Cc1ccc(Cl)cc1NC(=O)Cn1c(=O)cc(C)c2c(C)nn(C)c21 | inactive: -17.4% | 
Cc1ccc(CNC(=O)CCNS(=O)(=O)c2ccc3c(c2)oc(=O)n3C)cc1 | inactive: 2.26% | 
Cc1cc(C)c(S(=O)(=O)Nc2ccc3oc(C)c(C(=O)OC(C)C)c3c2)cc1C | inactive: 3.56% | 
O=C(COc1ccc(Br)cc1Br)Nc1ccc(S(=O)(=O)Nc2ncccn2)cc1 | inactive: 0.573% | 
COc1cccc(C2CC(=O)Nc3c2c(=O)n(C)c2nc4ccccc4n32)c1OC (stereo not given) | inactive: 6.79% | 
O=C(CCn1c(=O)c2sccc2n(Cc2ccc(F)cc2)c1=O)NCc1ccc2c(c1)OCO2 | inactive: -23.9% | 
Cc1ccc(-n2nc3cc(C)c(NC(=O)c4ccc(-c5ccccc5)o4)cc3n2)cc1 | inactive: 3% | 
Cc1ccc(NC(=O)CC2Oc3ccc(C)cc3NC2=O)c(C)c1 (stereo not given) | inactive: -6.38% | 
COc1cccc(Nc2nnc(-c3cc4ccc(O)cc4oc3=O)s2)c1 | inactive: -5.73% | 
CCOc1ccc(NC(=O)Cn2c(=O)n(CCc3ccccc3)c(=O)c3c4c(sc32)CCCC4)cc1 | inactive: 3.62% | 
CC(=O)c1ccc(NC(=O)Cn2nc(C(F)(F)F)c3c2CCC3)cc1 | inactive: -2.18% | 
Cc1ccc(CSc2c(C)cnc3c2c(=O)n(C)c(=O)n3C)cc1 | inactive: -1.59% | 
CCOC(=O)C1=C(CN2CCN(c3ccc(Cl)cc3)CC2)NC(=O)NC1c1ccc(OC)cc1 (stereo not given) | inactive: -0.977% | 

Structure (SMILES) | activity change, negative = inhibition | Potency
O=C(Cn1ncc2c3ccccc3n(Cc3ccccc3)c2c1=O)NCc1cccs1 | inactive: -1.41% | 
Cc1ccc(Cl)cc1N1CCN(C(=O)Cn2cnc3onc(-c4ccc(F)cc4)c3c2=O)CC1 | inactive: 3.15% | 
CCc1nc2ccc(C(=O)N3CCN(c4ccccc4F)CC3)cc2nc1CC | inactive: 2.35% | 
COc1cccc2sc(NC(=O)c3ccc4c(c3)OCCO4)nc12 | inactive: 10% | 
CCCCNC(=O)CCC1N=C2c3ccccc3N=C(SCC(=O)NCCc3ccc(OC)c(OC)c3)N2C1=O (stereo not given) | inactive: 2.52% | 
CCN(CC)CCNC(=O)CCn1c(=O)c2cccn2c2cccnc21 | inactive: 4.53% | 
Cc1ccc2nc(-c3ccc(NC(=O)Cc4ccccc4)cc3)sc2c1 | inactive: 7.67% | 
O=C(CSc1nc2ccsc2c(=O)n1Cc1ccc(F)cc1)NCc1ccc(Cl)cc1 | inactive: -1.27% | 
COc1ccc(OC)c(-c2cc(C(=O)Nc3ccc(C)c(C)c3)no2)c1 | inactive: -24.6% | 
CN1c2ccc(Cl)cc2-c2nc(SCC(=O)NCc3ccc(F)cc3)ncc2S1(=O)=O | inactive: 3.34% | 
O=C1CCCc2cc(S(=O)(=O)NCC3CCC(C(=O)Nc4ccc(Cl)cc4)CC3)ccc2N1 (stereo not given) | inactive: -19.2% | 
CC1=C(C(=O)Nc2ccc(C)cc2C)C(c2ccccc2)n2nc(SCC(=O)c3ccc(C)cc3)nc2N1 (stereo not given) | inactive: -3.43% | 
CCc1ccccc1NC(=O)CCNS(=O)(=O)c1ccc2c(c1)CCCC(=O)N2 | inactive: -2.52% | 
COc1ccc(NC(=O)Cn2c(=O)oc3ccccc32)cc1 | inactive: -0.0579% | 
O=C(NCC(c1ccc2c(c1)OCO2)N1CCOCC1)c1ccccc1 (stereo not given) | inactive: -1.67% | 
Cc1c(O)nc(SCC(=O)Nc2ccc(Cl)cc2Cl)n(-c2ccc(F)cc2)c1=O | inactive: -9.51% | 
CCN1CCN(c2ncc3c(n2)CCN(Cc2cc(Br)cs2)C3)CC1 | inactive: 0% | 
CCC(C)NC(=O)c1cc2cc(S(=O)(=O)N3CCCCC3)ccc2n1C (stereo not given) | inactive: 0.452% | 
CCC(C)c1ccc(OCC(=O)Nc2cccc3ccc(C)nc23)cc1 (stereo not given) | inactive: 1.47% | 
Cc1nn(C)c2c1c(C(F)(F)F)cc(=O)n2CC(=O)NCc1ccc(OC(C)C)cc1 | inactive: 0.788% | 
COc1cc(Cn2c(=O)oc3ccc(C)cc32)ccc1OCCC(C)C | inactive: -3.45% | 
CC(C)(C)c1ccc(S(=O)(=O)N2CCC(Oc3ccc(-n4cnnn4)cc3)CC2)cc1 | inactive: 3.94% | 
Cc1cn(C)c(CC(=O)NCc2cccc(Cl)c2)c1C(=O)O | inactive: -0.576% | 
CC(C)(C)c1ccc(CSC2=Nc3ccccc3C3=NC(CC(=O)NCc4cccs4)C(=O)N23)cc1 (stereo not given) | inactive: -1.5% | 

Structure (SMILES) | activity change, negative = inhibition | Potency
Cc1ccc(CNS(=O)(=O)c2ccc(N3CCCCS3(=O)=O)cc2)cc1 | inactive: 19.6% | 
O=C(CNC(=O)c1ccc(Cl)cc1)OCc1cc(=O)n2nc(C3CC3)sc2n1 | inactive: 0.352% | 
COC(=O)COc1ccc(C2C(C(=O)OC)=C(C)NC3=C2C(=O)c2ccccc23)cc1OC (stereo not given) | inactive: -18.1% | 
COc1ccc(Nc2oc(-c3ccc(COc4cccc(C)c4)o3)nc2C#N)cc1 | inactive: -9.89% | 
COC(=O)c1cc(NC(=O)CCc2c(C)nc3c(c(C)nn3C(C)(C)C)c2C)cc(C(=O)OC)c1 | inactive: 1.77% | 
COc1ccc(CCNC(=O)Cc2c(C)c3cc4c(C(C)(C)C)coc4c(C)c3oc2=O)cc1OC | inactive: -3.89% | 
Cc1cc(C)c2c(c1)NC(=O)C2(O)c1c[nH]c2ccccc12 (stereo not given) | inactive: -1.4% | 
Cc1ccc2c(c1)cc1c(=O)n(Cc3cccc(Cl)c3)nc(C)n12 | inactive: 1.88% | 
Cc1nc(N2CCOCC2)c2c(C(=O)N3CCN(c4ccccc4F)CC3)c(C)oc2n1 | inactive: -8.95% | 
Cc1ccc(C(=O)N(Cc2ccco2)Cc2sccc2C)cc1 | inactive: -18.5% | 
O=C(NCc1ccc(Cl)cc1)c1cc2c(s1)-c1ccccc1SC2 | inactive: -0.955% | 
COc1ccc(-c2nc3c(c(SCC(=O)Nc4cccc(O)c4)n2)Cc2c(CO)cnc(C)c2O3)cc1 | inactive: -0.482% | 
CC1CCc2onc(C(=O)N3CCN(c4ccccc4)CC3)c2C1 (stereo not given) | inactive: -3.96% | 
O=C(COc1ccccc1F)Nc1ccccc1C(=O)OCc1cc(=O)n2nc(C3CC3)sc2n1 | inactive: 0% | 
COc1cc(OC)cc(C(=O)Nc2cc3c(cc2N2CCCCC2)n(C)c(=O)n3C)c1 | inactive: 1.62% | 
CCc1ccccc1NC(=O)Cn1c(=O)n(Cc2ccco2)c(=O)c2ccccc21 | inactive: -1.07% | 
COc1ccc(-c2c(C#N)c(SCC(=O)Nc3cccc(Cl)c3)nc(C)c2C(=O)Nc2ccccc2)cc1OC | inactive: 6% | 
Cc1ccc(N2C(=O)CC(c3ccccc3F)C3=C2COC3=O)cc1Cl (stereo not given) | inactive: -20.6% | 
CCc1ccc(NC(=O)C2CCN(c3nn4cc(-c5ccc(OC)cc5)nc4s3)CC2)cc1 | inactive: -4.7% | 
COc1ccc(CNC(=O)c2cnc3sc(N4CCC(C)CC4)nn3c2=O)c(OC)c1 | inactive: 0% | 
Cc1cccc(S(=O)(=O)Nc2cccc(-c3ccc(N4CCCCC4)nn3)c2)c1 | inactive: -4.51% | 
CCN(CC)C(=O)Cn1c(=O)n(-c2ccc(Cl)c(Cl)c2)c(=O)c2c(C)c(C(=O)N(CC)CC)sc21 | inactive: -3.24% | 
CCc1nnc2c(N3CCN(c4cccc(C)c4)C(C)C3)nc3ccccc3n12 (stereo not given) | inactive: -0.235% | 
CCc1ccc(NC(=O)CCn2c(-c3ccc(OC)cc3)cc(C(C)=O)c2C)cc1 | inactive: -10.3% | 

Structure (SMILES) | activity change, negative = inhibition | Potency
COc1cccc(Cc2nc3ccccc3nc2SCC(=O)NCCc2ccccc2)c1 | inactive: 9.24% | 
COc1ccc(NC(=O)c2ccc3c(c2)N(Cc2cccc(Cl)c2)C(=O)c2ccccc2S3=O)cc1Cl (stereo not given) | inactive: -3.78% | 
CC1CCN(c2nc3c(S(=O)(=O)c4ccccc4)nnn3c3ccc(Cl)cc23)CC1 | inactive: -1.57% | 
COc1ccc(C2C=C(c3ccc(F)cc3)Nc3nc(-c4ccc(Cl)cc4)nn32)cc1 (stereo not given) | inactive: -13.3% | 
Cc1c(C)n(Cc2ccccc2)c2ccc(C(=O)NCc3ccccc3F)cc12 | inactive: -2.9% | 
COc1ccccc1NC(=O)NCCCN1CCN(c2ccc(F)cc2)CC1 | inactive: -26.2% | 
O=C(c1cnn(-c2cccc(F)c2)c1-n1cccc1)N1CCN(c2ccccc2F)CC1 | inactive: 6.94% | 
Cc1ccc(-c2nc3ccccc3[nH]2)cc1NC(=O)COc1ccccc1[N+](=O)[O-] |  | active: 2.33 µM
CC(=O)c1cccc(NC(=O)CN2C(=O)c3ccccc3Sc3ncccc32)c1 | inactive: -3.11% | 
CCCN1CCN(CCCNC(=O)c2ccc3c(c2)sc2nc(-c4ccc(OC)cc4)cn23)CC1 | inactive: 10.1% | 
Cc1ccc2c(CNCC(C)c3ccccc3)c(C(=O)O)n(Cc3ccccc3C)c2c1 (stereo not given) | inactive: -10.5% | 
CC1=C(C(=O)NCc2ccccc2Cl)C2(CCCCCC2)OC1=O | inactive: -0.617% | 
CCOC(=O)C1CCN(C(=O)Cn2nc(C)n3c(cc4sccc43)c2=O)CC1 | inactive: -6.74% | 
Cc1ccccc1Cn1c(CN2CCC(C(=O)NCc3cccnc3)CC2)cc2ccccc21 | inactive: -8.35% | 
Cn1c(SCC(=O)N2CCOCC2)ncc(C(=O)Nc2ccccc2)c1=O | inactive: 3.23% | 
Cc1ccc(CNC(=O)CSc2ncc(S(=O)(=O)c3ccc(Br)cc3)c(=O)[nH]2)cc1 | inactive: -1.04% | 
Nc1c(C(=O)Nc2ccccc2Cl)c2ccccn2c1C(=O)c1ccc(Cl)cc1 | inactive: -7.76% | 
COc1ccc(NC(=O)CSc2nc3c([nH]c4ccccc43)c(=O)n2C)cc1 | inactive: -13.9% | 
CCc1nn(CC(=O)NCCC(C)C)c(=O)c2cc3occc3n12 | inactive: -1.86% | 
CCn1c(C)c(C2N3CC4(C)CN2CC(CC)(C3)C4=O)c2ccccc21 (stereo not given) | inactive: 2.2% | 
COc1ccc(NS(=O)(=O)c2ccc3c(c2)C(C(C)C)C(=O)N3)cc1 (stereo not given) | inactive: 2.87% | 
Cc1ccc(CNC(=O)C(=O)NCC(c2cccs2)S(=O)(=O)c2ccc(C)cc2)cc1 (stereo not given) | inactive: -3.01% | 
COC(=O)c1sccc1S(=O)(=O)N(CC(=O)NCc1ccccc1)c1ccccc1 | inactive: -11.3% | 
